# Results reported in article PMC4336329 (PLoS ONE, 2015).
# About 2,200 (0.71%) of roughly 310,000 compounds showed an effect of 50% or more. Effects have a minus sign here. This is one part of the list.
# Molecular target: human ether-à-go-go-related gene (hERG) potassium channel (human, UniProt Q12809)
# Experiment: primary screen, population patch clamp on CHO cells stably expressing hERG
# human ether-à-go-go-related gene (hERG) potassium channel, sequence (Q12809 whole entry, looked up): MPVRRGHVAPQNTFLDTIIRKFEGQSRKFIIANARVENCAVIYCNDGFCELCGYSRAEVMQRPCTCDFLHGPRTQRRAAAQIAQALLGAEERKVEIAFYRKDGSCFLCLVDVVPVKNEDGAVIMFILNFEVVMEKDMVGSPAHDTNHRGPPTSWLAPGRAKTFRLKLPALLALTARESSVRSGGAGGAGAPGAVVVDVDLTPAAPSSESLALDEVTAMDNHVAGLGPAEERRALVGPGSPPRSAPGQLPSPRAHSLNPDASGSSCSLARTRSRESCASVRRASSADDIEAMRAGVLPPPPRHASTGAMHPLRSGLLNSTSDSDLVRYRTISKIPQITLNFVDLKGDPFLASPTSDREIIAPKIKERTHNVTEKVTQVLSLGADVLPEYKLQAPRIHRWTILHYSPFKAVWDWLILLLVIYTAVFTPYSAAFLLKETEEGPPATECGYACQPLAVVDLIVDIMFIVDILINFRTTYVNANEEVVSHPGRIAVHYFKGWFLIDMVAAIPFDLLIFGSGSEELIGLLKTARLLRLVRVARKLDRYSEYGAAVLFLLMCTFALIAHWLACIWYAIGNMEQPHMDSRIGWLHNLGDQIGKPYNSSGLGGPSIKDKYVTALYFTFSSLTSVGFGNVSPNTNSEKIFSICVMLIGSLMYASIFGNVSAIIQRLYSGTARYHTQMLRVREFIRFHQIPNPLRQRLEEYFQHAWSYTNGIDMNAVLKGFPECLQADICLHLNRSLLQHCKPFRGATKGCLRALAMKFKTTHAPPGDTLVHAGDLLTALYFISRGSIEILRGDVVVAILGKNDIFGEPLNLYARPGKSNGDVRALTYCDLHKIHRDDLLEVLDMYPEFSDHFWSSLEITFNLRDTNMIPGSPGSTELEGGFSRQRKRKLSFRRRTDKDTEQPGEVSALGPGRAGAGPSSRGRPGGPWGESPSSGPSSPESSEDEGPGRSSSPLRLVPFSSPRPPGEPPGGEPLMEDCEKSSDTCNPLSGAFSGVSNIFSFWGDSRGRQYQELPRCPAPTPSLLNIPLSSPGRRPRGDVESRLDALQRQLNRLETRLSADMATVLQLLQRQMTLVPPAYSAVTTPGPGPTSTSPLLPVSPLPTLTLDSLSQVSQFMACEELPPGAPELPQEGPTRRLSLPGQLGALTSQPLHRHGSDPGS
row,Structure (SMILES),"hERG current change (%, negative = inhibition) at 1uM"
1,CCOC(=O)c1sc(Nc2nc3c(OC)cccc3s2)nc1C,4.72%
2,CCCN(Cc1ccccc1)C(=S)Nc1ccc(F)cc1,9.22%
3,Cc1cc(C)c2nc(SCC(=O)Nc3cc(C)on3)c(C)cc2c1,16%
4,CCC(NS(=O)(=O)c1c(C)[nH]c(=O)[nH]c1=O)C12CC3CC(CC(C3)C1)C2 (stereo not shown),-0.141%
5,CCOc1c(P(=S)(N(C)C)N(C)C)c(C)nn1-c1ccccc1,15.7%
6,C=CCn1c(SCc2ccc(Cl)cc2)nc2c1c(=O)[nH]c(=O)n2C,11.7%
7,O=C(Nc1ccc2c(c1)OCO2)c1cnccn1,8.63%
8,Cc1cc(C)cc(NS(=O)(=O)c2ccc3[nH]cc(C(=O)N4CCc5ccccc54)c(=O)c3c2)c1,11.6%
9,N#CC(C(=O)c1ccc(S(=O)(=O)N2CCCCCC2)cc1)c1nc2ccccc2[nH]1 (stereo not shown),7.36%
10,COc1ccc(N2C(=O)CSC23C(=O)N2CCCc4cccc3c42)cc1 (stereo not shown),11.5%
11,COc1ccc(CNC(=O)c2c(C)cc(=O)oc2C)cc1OC,-5.28%
12,Cc1ccc(F)c(C2=CC(=O)C[C@H](c3ccc(F)cc3)C2)c1,2.4%
13,C=CCn1c(C(O)c2ccccc2)nc2ccccc21 (stereo not shown),12.8%
14,COCC(C)n1c(SCc2nc3ccccc3c(=O)[nH]2)nc2ccccc2c1=O (stereo not shown),-3.8%
15,O=C(NCCCNC(=O)c1ccco1)c1cccc(F)c1,2.55%
16,CCOC(=O)c1cnn(CCOC(=O)c2ccccc2)c1NC(=O)c1ccccc1,1.31%
17,CC(C)(C)OC(=O)[C@H](Cc1ccccc1)NC(=O)c1nc[nH]c1C(=O)NCc1ccccc1,13.2%
18,CCn1c(Cn2nnc(-c3ccccc3)n2)nnc1SCC(=O)Nc1cccc(C(C)=O)c1,2.68%
19,O=C(NC1CC1)C1CCN(C(=O)c2ccccc2Cl)CC1,13%
20,C/C(=N\O)C(C)/[N+]([O-])=C/c1nc(C)c(C)n1O (stereo not shown),18.1%
21,CC1(C(=O)N2CCN(C(=O)c3ccco3)CC2)CC1(Br)Br (stereo not shown),9.48%
22,c1ccc(-c2oc3ncnc(NCCCN4CCOCC4)c3c2-c2ccccc2)cc1,0.244%

row,Structure (SMILES),"hERG current change (%, negative = inhibition) at 1uM"
1,O=C(Nc1ccc(N2CCN(C(=O)c3ccccc3)CC2)cc1)c1ccc(Br)o1,-6.32%
2,C/C(=C\c1ccccc1)C(=O)Nc1cc(C)on1,11.1%
3,CCC1CCCCN1CCCNC(=O)c1cc2c(=O)oc3ccc(C)cc3c2s1 (stereo not shown),-32.9%
4,CCN(Cc1ccccc1)c1ccc(/C=C(\C#N)c2ccccn2)cc1,5.5%
5,COc1ccc(-c2nn(CCC#N)cc2C(=O)Nc2ccccc2Br)cc1,16.4%
6,CC(C)(C)Cc1nnc(NC(=O)Cc2cccs2)s1,15.6%
7,O=C(COC(=O)/C=C/C(=O)N1CCN(c2ccccc2)CC1)NCc1ccc(F)cc1,3.08%
8,CCc1cc2c3c(c1)/C(=C1/SC(N)=NC1=O)C(=O)N3C(C)(C)C=C2C,10.2%
9,O=C(CCC(=O)N(c1ccc(F)cc1)C(C(=O)NC1CCCC1)c1ccncc1)Nc1cccnc1 (stereo not shown),0.818%
10,O=C(Oc1ccc(N(C(=O)c2ccncc2)S(=O)(=O)c2ccc(Cl)cc2)cc1)c1ccncc1,6.87%
11,c1ccc(N2CC3CCc4ccccc4C3=N2)cc1 (stereo not shown),10.5%
12,O=C1CC(c2ccccc2)CN1C(=O)c1ccccc1 (stereo not shown),8.7%
13,COc1cccc(N2CCN(C(=O)c3cccn4c(=O)c5c(C)c(C)sc5nc34)CC2)c1,-0.0662%
14,N#Cc1cc(S(=O)(=O)c2ccccc2)c(N)[nH]c1=O,19.9%
15,Cc1csc(NC(=O)CSc2nnc(-c3ccoc3C)o2)n1,11%
16,O=C(Nc1cc(N2CCOCC2)ncn1)NC1(C(F)(F)F)Oc2ccccc2O1,15.5%
17,Cc1cc(S(=O)(=O)N2CCOCC2)ccc1OCC(=O)Nc1cccc(F)c1,-11.5%
18,CCOC(=O)C1=C(CNCc2ccccc2Cl)NC(=O)NC1c1ccc2c(c1)OCO2 (stereo not shown),10.5%
19,CSc1ccc(/C=N/Nc2nc(C)cc(C)n2)cc1,-0.532%
20,O=C(CSCc1ccccc1Br)Nc1ccccc1,11.1%
21,Fc1ccc(OCCn2cnc(Cl)c2Cl)cc1,9.18%
22,Cn1c(C(O)c2ccccc2)nc(Cl)c1Cl (stereo not shown),12.8%

row,Structure (SMILES),"hERG current change (%, negative = inhibition) at 1uM"
1,Cc1ccc(NCN2C(=O)C3CC=CCC3C2=O)cc1 (stereo not shown),7.94%
2,O=C(Nc1ccc(C(F)(F)F)cc1)c1ccc(NC(=O)C2CCCO2)cc1 (stereo not shown),13.5%
3,Br.N=c1n(CCN2CCOCC2)c2ccccc2n1CC(=O)c1cccc([N+](=O)[O-])c1,-2.15%
4,O=C1CC(Sc2nnc(-c3ccccc3)o2)C(=O)N1c1ccccc1 (stereo not shown),8.63%
5,O=C(/C=C/c1cc([N+](=O)[O-])ccc1OC(F)F)NCc1ccc(Cl)cc1,8.29%
6,CS(=O)(=O)N1CCC(Oc2ccccc2C(=O)NC2CCCCCC2)CC1,2.93%
7,O=C(CCN1C(=O)/C(=C/c2ccccc2)SC1=S)NCCc1ccc(O)cc1,16.6%
8,Cc1ccc(-c2nnc(SCC(=O)CC(=O)Nc3ccccc3)n2C)cc1,1.61%
9,CN(c1ccc(C(=O)NCc2ccccc2)cc1)S(C)(=O)=O,7.98%
10,Cc1oc(-c2ccccc2)nc1CS(=O)CC(=O)O (stereo not shown),13.8%
11,CCC(C)N1C(=O)/C(=C\c2cc3c4c(c2)CCCN4CCC3)C(=O)NC1=S (stereo not shown),15.4%
12,Cc1ccccc1N(CC(=O)NCCSc1ccccn1)S(=O)(=O)c1ccccc1,5.06%
13,CCCC(=O)Nc1ccc2c(c1)nc(CCN1CCN(c3ccccn3)CC1)n2C,1.68%
14,COc1cc(C2NCC(c3ccc(Cl)cc3Cl)c3c2[nH]c2ccccc32)cc(OC)c1OC.Cl (stereo not shown),5.01%
15,CCOc1ccc(S(=O)(=O)NCCSc2ccccc2)cc1,8.71%
16,CN(C)C(=O)CS(=O)(=O)c1ccc(Cl)cc1,9.59%
17,CCOC(=O)c1ccc2[nH]c3c(c2c1)CCCC3C(=O)OCC (stereo not shown),2.92%
18,Nc1sc2c(c1C(=O)NC1CCS(=O)(=O)C1)CCC2 (stereo not shown),11.3%
19,NC(=O)c1c[nH]c2ccccc12,11.8%
20,O=C(O)C1CC=CCC1C(=O)Nc1ccccc1C(=O)N1CCN(c2ccccc2)CC1 (stereo not shown),-6.17%
21,COCCNC(=O)c1cc2c(=O)n3cccc(C)c3nc2n(Cc2ccncc2)c1=N,-31.5%
22,O=C(CSC(=S)N1CCCC1)NCCc1ccccc1,3.02%

row,Structure (SMILES),"hERG current change (%, negative = inhibition) at 1uM"
1,CCC(CO)Nc1ccc(-c2n[nH]c(=O)c3ccccc23)cc1[N+](=O)[O-] (stereo not shown),-0.384%
2,O=C(COc1ccccc1)c1cn(CC(=O)N2CCOCC2)c2ccccc12,6.62%
3,COc1ccc(-c2ccc3sc4ccccc4c(=O)c3c2)cn1,1.08%
4,O=C(Nc1ccc(C(=O)O)cc1)Nc1ccc(F)cc1F,8.79%
5,CCOC(=O)Cn1c(=NC(=O)C2COc3ccccc3O2)sc2cc(S(N)(=O)=O)ccc21 (stereo not shown),8.74%
6,CCN(C(=O)c1cc2c(s1)-c1ccccc1OC2)c1cc(OC)ccc1OC,10.1%
7,CC1SC(=NC(=O)c2ccncc2)NC1=O (stereo not shown),15.8%
8,O=c1[nH]cnc2c1nc(SCc1ccccc1)n2C1OC(CO)C(O)C1O (stereo not shown),3.11%
9,CC(C)COc1ccc(C(=O)Nc2ccc(NC(=O)c3ccco3)c(Cl)c2)cc1,12.9%
10,Cc1sc2ncnc(OCC(=O)N3CCN(S(=O)(=O)c4ccc(Cl)cc4)CC3)c2c1C,7.72%
11,COc1ccc(OC)c(-c2cc(C(=O)NCc3cccs3)no2)c1,-0.423%
12,CCOc1ccccc1CNC(=O)C1Cc2cc(S(=O)(=O)N3CCCCC3)ccc2N1C(C)=O (stereo not shown),5.07%
13,CCCn1c(NC(=O)c2ccccc2)nc2ccccc21,-2.01%
14,CCOC(=O)c1[nH]c(C)c(C(=O)Nc2ccc(C)c(F)c2)c1C,9.69%
15,Cc1ccc(S(=O)(=O)CC(=O)Nc2nc3ccccc3s2)cc1,16.7%
16,C=CCN1C(=O)CSc2ccc(C(=O)NC(C)c3ccccc3)cc21 (stereo not shown),10.3%
17,CN(Cc1nc2ccccc2[nH]1)C(=O)C1CCC(=O)N(CCc2cccc(F)c2)C1 (stereo not shown),15.1%
18,O=C(O)/C=C/C(=O)O.c1ccc(CCC2=NCCn3cccc32)cc1,6.02%
19,COc1ccc(NC(=O)CN2CCN(CC(=O)Nc3ccc(F)cc3)CC2)cc1Cl,-88.6%
20,c1cncc(-c2noc(-c3cccc4ccccc34)n2)c1,10.7%
21,Cc1cc(OCCOc2cccc3cccnc23)c(C)cc1Cl,-0.287%
22,COc1ccc2oc(=O)c(C(=O)N3CCN(c4ccc(F)cc4)CC3)cc2c1,-5.38%
